Test results: a collection of fitness landscapes (doi:10.1016/j.celrep.2020.107928)
Whole data set: some 81,000 sequences, median “one-hybrid fitness for binding NBS DNA” near -0.1, cut for the highest 2% near 0.36. Some of the results follow.

B1: Caulobacter ParB omega fusion; a variant is named by its letters at X, in order, B8GW30 (parent)
chain: MESVVVGEPGMSEGRRGLGRGLSALLGEVDAAPAQAPGEQLGGSREAPIEILQRNPDQPRRTFREEDLEDLSNSIREKGVLQPILVRPSPDTAGEYQIVAGERAWRAAQRAGLKTVPIMVRELDDLAVLEIGIIENVQRADLNVLEEALSYKVLMEKFERTQENIAQTIGKSXSHVANXMRLLXLPDEVQSYLVSGELTAXHARAIAAAADPVALAKQIIEGGLSVRETEALARKAPNLSAGKSKGGRPPRVKDTDTQALESDLSSVLGLDVSIDHRGSTGTLTITYATLEQLDDLCNRLTRGI

Variants of: B1
Test: one-hybrid fitness for binding NBS DNA (the Noc-binding site; scaled: cognate 1, non-cognate 0); higher = stronger binding
Details: with NBS DNA site
How it was run: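 In E. coli USO, a HIS3 reporter with its site placed 19 bp from the promoter was used to select Caulobacter ParB variants randomised at four specificity codons. Growth lasted 48 hours at 37°C on histidine-free M9 containing 0.1 mM IPTG and 5 mM 3-AT. Fitness was taken as the log change in variant-to-wild-type read ratio from Illumina sequencing of pre- and post-selection plasmids, rescaled between the non-cognate and cognate sites.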

one-hybrid fitness for binding NBS DNA, 0.306:
QTSQ

one-hybrid fitness for binding NBS DNA, 0.631:
RVRT

one-hybrid fitness for binding NBS DNA, 0.499:
QYSR

one-hybrid fitness for binding NBS DNA, 0.429:
QKRK

one-hybrid fitness for binding NBS DNA, 0.322:
RLRH

one-hybrid fitness for binding NBS DNA, 0.505:
QKYR

one-hybrid fitness for binding NBS DNA, ≤ 0.2:
ASMF
RRPL
CTRS
HPWS
HVKC
QCEV
NAVC
ACEY
TNCW
LIMY
ECKA
HTIS
ALST
NDGC
SDMR
NITV
THRM
WYVL
PSQR
SYGD
KMRA
TYRT
DGHH
RASV
IQTN
TKNK
SDWG
GKTG
NCWG
CGAW
WDDL
DWSD
RFMG
AWPK
QLMI
LFLR
YGMR
HYGP
DRSH
RIKN
ESTD
PLRM
DRLL
VNLC
RLDG
PRCA
SYET
VTPY
CWHV
QHVP
KSQQ
NPEC
QVMC
GSKG
SYTW
PEGS
GSCV
QKQE
SHMR
RRLW
QGIV
SRAQ
RTFA
RVES
ESKS
ARTM
SRSV
SSSV
NCSG
KWMV
KLLI
PMTI
VSCI
WTAS
SKPS
YNGW
VTKA
PPYD
YHSN
SIHD
PYDG
FSHT
DRTI
HAIV
GLSS
VKNG
GFWS
PEEL
VEAL
QKQL
PTNC
MTPC
GKSP
VAIH
NQSW
TSDV
GRFV
QPLY
SLQR
GELS
HIVF
HCVS
SVQC
HVLC
QNTF
ENAK
LLHG
DFDT
NMDD
LWRH
FHHS
IVRV
VCIL
NNPF
RECD
KEPG
RGCE
YYMR
MDRG
ICLT
FRMR
RGYW
KRAK
NQIG
NYVT
SDTC
CNNM
MNMS
VNLA
QYVN
ILAW
HQIT
ECSL
NSWT
NLVT
NAAQ
CSHR
KLVQ
HNWD
IADY
TKRI
LNAA
KATR
QRIG
ETEY
RWQS
TVKV
PFIY
NCAR
EIDT
HGFS
CSSY
PNNC
ITSE
QIQC
LILM
QILS
FCHR
VLCG
WCNY
RMVP
SVFF
TLSR
TTAI
TGYV
IEER
QYGI
YVYM
HYTT
WLIK
LVQS
RKHI
EHEF
LDAS
LPRV
TRGN
VITK
RYQQ
RYVE
HVKF
TIPL
INVC
QILY
RHQY
CKSE
SVIY
TWTI
PPFM
NITK
SEPM
TKNR
FKAR
RPYP
HQTE
STKA
TESE
PVEF
VWRR
RDAQ
NTSL
EDMY
PGRP
ELVR
IIRY
CVTC
LRSL
RHIM
HEGW
QSTY
YTGR
QIPS
QHLQ
YCAQ
VNKV
VLMG
TLVA
CSDR
RERT
FWDI
ANNC
TMSG
AQNP
EDRY
IEKF
KHQT
LLNV
DPNH
AKPE
SDYN
PIEL
KTCW
CQLP
AQPM
EWSR
ELRC
RTVD
YCVL
KHNR
ARDG
IMYC
PSSI
EAES
LLQS
QERC
KWES
GLFG
RPGQ
TLNS
VDKA
YFFG
YLKR
TIYC
TPNP
RISE
YSLC
EALW
WYVS
IARL
TAYM
HSPV
QKNF
KHTI
TGSK
RSED
HTAV
ETKT
RMNP
AVHK
QAID
RAHE
GYRH
QCLH
RVLP
LQQT
KMPW
LSSV
SWMR
KVTV
VRAF
MMPN
LQCR
RPGA
ASMY
FALL
LLVN
LEHH
GRAT
IRIG
RTIC
FNSL
VSTR
WMFT
CPNE
DTHT
EPTQ

one-hybrid fitness for binding NBS DNA, 0.44:
RYQR

one-hybrid fitness for binding NBS DNA, 0.603:
QRLS

one-hybrid fitness for binding NBS DNA, 0.284:
EARR

one-hybrid fitness for binding NBS DNA, 0.33:
QRGF

one-hybrid fitness for binding NBS DNA, 0.628:
RRMS
